According to the supplement of paper PMC8728848:
The other results are listed elsewhere or left out.

Key:
Assay in all cases: glycan array binding signal (z-score within array); higher = stronger binding
Details in all cases: glycan notation: IUPAC condensed, linker removed
[1] = target: Glc(a1-4)Glc(a1-4)Glc(a1-4)Glc(a1-4)Glc(a1-4)Glc(a1-4)Glc
In short: (§1)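 Glycan array data came from 3228 arrays in the Consortium for Functional Glycomics database, and only arrays with an available protein sequence were kept. Glycan names were put into IUPAC-condensed notation, and columns mapping to the same glycan were averaged. The binding signal is a within-array Z-score, averaged across arrays of one protein sequence run at different concentrations or buffers and across linkers. A negative Z-score can be read as non-binding.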

[2] = target: Glc(a1-4)Glc(a1-4)Glc(a1-4)Glc(a1-4)Glc(a1-4)Glc(a1-4)Glc(a1-4)Glc
In short: as §1

[3] = target: Glc(a1-4)Glc(a1-4)Glc(a1-4)Glc(a1-4)Glc(a1-4)Glc(a1-4)Glc(a1-4)Glc(a1-4)Glc
In short: as §1

[4] = target: Glc(a1-4)Glc(a1-4)Glc(a1-4)Glc(a1-4)Glc(a1-4)Glc(a1-4)Glc(a1-4)Glc(a1-4)Glc(a1-4)Glc
In short: as §1

[5] = target: Glc(a1-4)Glc(a1-4)Glc(a1-4)Glc(a1-4)Glc(a1-4)Glc(a1-4)Glc(a1-4)Glc(a1-4)Glc(a1-4)Glc(a1-4)Glc
In short: as §1

[6] = target: Glc(a1-4)Glc(a1-4)Glc(a1-4)Glc(a1-4)Glc(a1-4)Glc(a1-4)Glc(a1-4)Glc(a1-4)Glc(a1-4)Glc(a1-4)Glc(a1-4)Glc
In short: as §1

[7] = target: Glc(a1-4)Glc(a1-4)Glc(a1-4)Glc(a1-4)Glc(a1-4)Glc(a1-4)Glc(a1-4)Glc(a1-4)Glc(a1-4)Glc(a1-4)Glc(a1-4)Glc(a1-4)Glc
In short: as §1

[8] = target: Glc(a1-6)Glc
In short: as §1

[9] = target: Glc(a1-6)Glc(a1-4)Glc(a1-4)Glc
In short: as §1

[10] = target: Glc(a1-6)Glc(a1-6)Glc
In short: as §1

[11] = target: Glc(a1-6)Glc(a1-6)Glc(a1-6)Glc
In short: as §1

[12] = target: Glc(a1-6)Glc(a1-6)Glc(a1-6)Glc(a1-6)Glc
In short: as §1

[13] = target: Glc(a1-6)Glc(a1-6)Glc(a1-6)Glc(a1-6)Glc(a1-6)Glc
In short: as §1

[14] = target: Glc(a1-6)Glc(a1-6)Glc(a1-6)Glc(a1-6)Glc(a1-6)Glc(a1-6)Glc
In short: as §1

[15] = target: Glc(a1-6)Glc(a1-6)Glc(a1-6)Glc(a1-6)Glc(a1-6)Glc(a1-6)Glc(a1-6)Glc
In short: as §1

[16] = target: Glc(a1-6)Glc(a1-6)Glc(a1-6)Glc(a1-6)Glc(a1-6)Glc(a1-6)Glc(a1-6)Glc(a1-6)Glc
In short: as §1

[17] = target: Glc(a1-6)Glc(a1-6)Glc(a1-6)Glc(a1-6)Glc(a1-6)Glc(a1-6)Glc(a1-6)Glc(a1-6)Glc(a1-6)Glc
In short: as §1

[18] = target: Glc(a1-6)Glc(a1-6)Glc(a1-6)Glc(a1-6)Glc(a1-6)Glc(a1-6)Glc(a1-6)Glc(a1-6)Glc(a1-6)Glc(a1-6)Glc
In short: as §1

[19] = target: Glc(a1-6)Glc(a1-6)Glc(a1-6)Glc(a1-6)Glc(a1-6)Glc(a1-6)Glc(a1-6)Glc(a1-6)Glc(a1-6)Glc(a1-6)Glc(a1-6)Glc
In short: as §1

[20] = target: Glc(a1-6)Glc(a1-6)Glc(a1-6)Glc(a1-6)Glc(a1-6)Glc(a1-6)Glc(a1-6)Glc(a1-6)Glc(a1-6)Glc(a1-6)Glc(a1-6)Glc(a1-6)Glc
In short: as §1

[21] = target: Glc(b1-2)Glc
In short: as §1

[22] = target: Glc(b1-3)Glc
In short: as §1

[23] = target: Glc(b1-3)Glc(b1-3)Glc
In short: as §1

[24] = target: Glc(b1-3)Glc(b1-3)Glc(b1-3)Glc
In short: as §1

[25] = target: Glc(b1-3)Glc(b1-3)Glc(b1-3)Glc(b1-3)Glc
In short: as §1

[26] = target: Glc(b1-3)Glc(b1-3)Glc(b1-3)Glc(b1-3)Glc(b1-3)Glc
In short: as §1

[27] = target: Glc(b1-3)Glc(b1-3)Glc(b1-3)Glc(b1-3)Glc(b1-3)Glc(b1-3)Glc
In short: as §1

[28] = target: Glc(b1-3)Glc(b1-3)Glc(b1-3)Glc(b1-3)Glc(b1-3)Glc(b1-3)Glc(b1-3)Glc
In short: as §1

[29] = target: Glc(b1-3)Glc(b1-3)Glc(b1-3)Glc(b1-3)Glc(b1-3)Glc(b1-3)Glc(b1-3)Glc(b1-3)Glc
In short: as §1

[30] = target: Glc(b1-3)Glc(b1-3)Glc(b1-3)Glc(b1-3)Glc(b1-3)Glc(b1-3)Glc(b1-3)Glc(b1-3)Glc(b1-3)Glc
In short: as §1

[31] = target: Glc(b1-3)Glc(b1-3)Glc(b1-3)Glc(b1-3)Glc(b1-3)Glc(b1-3)Glc(b1-3)Glc(b1-3)Glc(b1-3)Glc(b1-3)Glc
In short: as §1

[32] = target: Glc(b1-3)Glc(b1-3)Glc(b1-3)Glc(b1-3)Glc(b1-3)Glc(b1-3)Glc(b1-3)Glc(b1-3)Glc(b1-3)Glc(b1-3)Glc(b1-3)Glc
In short: as §1

[33] = target: Glc(b1-3)Glc(b1-3)Glc(b1-3)Glc(b1-3)Glc(b1-3)Glc(b1-3)Glc(b1-3)Glc(b1-3)Glc(b1-3)Glc(b1-3)Glc(b1-3)Glc(b1-3)Glc
In short: as §1

[34] = target: Glc(b1-4)Glc
In short: as §1

[35] = target: Glc(b1-4)Glc(b1-4)Glc
In short: as §1

[36] = target: Glc(b1-4)Glc(b1-4)Glc(b1-4)Glc
In short: as §1

[37] = target: Glc(b1-4)Glc(b1-4)Glc(b1-4)Glc(b1-4)Glc
In short: as §1

[38] = target: Glc(b1-4)Glc(b1-4)Glc(b1-4)Glc(b1-4)Glc(b1-4)Glc
In short: as §1

Measured: glycan array binding signal (z-score)

B1: HysACBM (Streptococcus pneumoniae), Q54873 (protein)
chain: KNLVENGDFGQTEDGSSPWTGSKAQGWSAWVDQKNSADASTRVIEAKDGAITISSHEKLRAALHRMVPIEAKKKYKLRFKIKTDNKIGIAKVRIIEESGKDKRLWNSATTSGTKDWQTIEADYSPTLDVDKIKLELFYETGTGTVSFKDIELVEVADQLS
0.169: [31]
-0.059: [9]
-0.044: [17]
0.776: [2]
0.136: [5]
-0.033: [38]
-0.026: [1]
-0.091: all other assays above
